Laboratory results taken from PMC4336329 (PLoS ONE, 2015).
In all, about 310,000 compounds went through this assay and about 2,200 (0.71%) showed an effect of 50% or more. The effect is printed as a negative number. The list shows a part of the results.

Molecular target: human ether-à-go-go-related gene (hERG) potassium channel (human, UniProt Q12809)
Assay: primary screen, population patch clamp on CHO cells stably expressing hERG

human ether-à-go-go-related gene (hERG) potassium channel, sequence (Q12809 whole entry, looked up): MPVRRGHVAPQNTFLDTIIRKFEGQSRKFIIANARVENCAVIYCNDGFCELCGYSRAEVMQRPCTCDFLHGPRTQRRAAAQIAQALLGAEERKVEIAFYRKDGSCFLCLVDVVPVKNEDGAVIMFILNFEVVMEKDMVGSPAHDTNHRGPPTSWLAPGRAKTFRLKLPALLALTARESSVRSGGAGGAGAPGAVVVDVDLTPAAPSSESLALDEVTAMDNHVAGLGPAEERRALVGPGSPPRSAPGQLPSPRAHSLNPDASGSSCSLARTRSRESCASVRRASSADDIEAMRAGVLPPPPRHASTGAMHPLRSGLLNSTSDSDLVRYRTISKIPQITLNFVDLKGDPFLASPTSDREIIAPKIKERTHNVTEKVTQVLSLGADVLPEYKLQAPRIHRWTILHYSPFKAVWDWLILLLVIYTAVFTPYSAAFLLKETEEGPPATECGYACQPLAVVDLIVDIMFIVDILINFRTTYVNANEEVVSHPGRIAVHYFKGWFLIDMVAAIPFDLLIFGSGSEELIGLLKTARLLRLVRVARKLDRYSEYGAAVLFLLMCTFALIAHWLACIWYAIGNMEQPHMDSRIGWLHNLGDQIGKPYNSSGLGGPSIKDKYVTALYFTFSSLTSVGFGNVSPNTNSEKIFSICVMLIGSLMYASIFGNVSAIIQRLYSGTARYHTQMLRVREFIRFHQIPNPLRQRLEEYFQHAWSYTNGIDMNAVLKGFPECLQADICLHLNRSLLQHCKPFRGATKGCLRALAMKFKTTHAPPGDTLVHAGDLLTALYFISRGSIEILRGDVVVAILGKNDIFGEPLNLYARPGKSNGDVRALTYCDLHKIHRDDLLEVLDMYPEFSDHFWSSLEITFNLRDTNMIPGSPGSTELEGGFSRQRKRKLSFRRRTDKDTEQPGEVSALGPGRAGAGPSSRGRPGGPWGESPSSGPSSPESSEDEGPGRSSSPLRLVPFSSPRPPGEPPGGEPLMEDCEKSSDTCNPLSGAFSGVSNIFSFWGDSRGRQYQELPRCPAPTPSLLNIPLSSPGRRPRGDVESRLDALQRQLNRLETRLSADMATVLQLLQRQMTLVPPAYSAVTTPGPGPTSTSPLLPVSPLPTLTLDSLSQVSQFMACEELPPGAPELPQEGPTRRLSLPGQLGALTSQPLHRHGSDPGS

| SMILES | hERG current change (%, negative = inhibition) at 1uM |
| --- | --- |
| COc1ccc(-n2c(SCC(=O)N3CCCCC3)nnc2-c2cccnc2)cc1 | 10.2% |
| CCC1CCCCN1CCCNC(=O)CN1C(=O)COc2ccccc21 (stereo not drawn) | 4.11% |
| COc1ccc(CCn2nnnc2C(C(C)C)N2CCC(C(N)=O)CC2)cc1OC (stereo not drawn) | 3.01% |
| CCC(=O)c1ccc(OCC(=O)OCC(=O)c2cc(C)n(C3CC3)c2C)cc1 | 6.74% |
| O=C(NC1CCCCC1)C1COc2ccccc2O1 (stereo not drawn) | 9.05% |
| O=c1c(-c2ccccc2)coc2c(CN3CCCC3)c(O)ccc12 | 8% |
| Cc1ccc(C)c(CN2CCC(CNC(=O)Nc3ccc(C)c(F)c3)CC2)c1 | 13.2% |
| Cc1cc(=O)n2nc(N3CCCC3C(=O)Nc3cccc(Cl)c3C)sc2n1 (stereo not drawn) | 12.5% |
| COc1ccc([C@H]2[C@H](C(=O)C(C)(C)C)N3N=Cc4ccccc4C3C23C(=O)OC(C)(C)OC3=O)cc1 (stereo partly drawn) | 6.65% |
| CN1CCN(C(=O)C2=C[C@H](c3ccc(C(F)(F)F)cc3)C[C@H](OCc3ccc(CO)cc3)O2)CC1 | -3.63% |
| CC(=O)Nc1ccc(S(=O)(=O)Nc2cc([N+](=O)[O-])ccc2C)cc1 | 15.5% |
| COc1ccc2oc(C(=O)OCC(=O)N(CCC#N)c3ccccc3)c(C)c2c1 | 4.66% |
| COc1ccc(CC(=O)N/N=C(\C)CC(=O)Nc2ccc(N(C)C)cc2)cc1OC | 10.9% |
| COc1ccccc1-n1cc(CN2CCN(CC=C(C)C)C(CCO)C2)cn1 (stereo not drawn) | 2.85% |
| COCCCNC(=O)COC(=O)c1ccc(-c2nc3ccccc3s2)s1 | -0.879% |
| Cc1cccc(-n2c(O)c(/C=C3/C(c4ccccc4)=Nc4ccccc43)c(=O)[nH]c2=O)c1 | 13% |
| O=C/C(=C\Nc1ccc(Br)cc1)c1nc2ccccc2o1 | 17.3% |
| O=C(CCNS(=O)(=O)c1ccc(Br)cc1)NCCc1ccc(Cl)cc1 | 1.37% |
| CCOC(=O)CSc1nnc(-c2ccco2)n1-c1ccc(C)cc1 | -1.01% |
| Cc1cccc(Oc2cc([N+](=O)[O-])cc3c2C(=O)Nc2ccccc2O3)c1 | 0.356% |
| COc1ccc(C2N(C(=O)N3CCOCC3)CCN2S(=O)(=O)c2ccc(C)cc2)cc1 (stereo not drawn) | 14.1% |
| Cc1ccc(C(=O)N2CCN(Cc3ccccc3)CC2)o1 | -17% |

| SMILES | hERG current change (%, negative = inhibition) at 1uM |
| --- | --- |
| CC(C)n1nnc(-c2ccc(OCc3ccccc3F)cc2)n1 | 15.2% |
| CNC(=O)CSc1nnc(-c2ccco2)n1-c1cccc(C)c1C | 11.2% |
| CCOc1cc(NC(=O)c2cccs2)c(OCC)cc1NC(=O)CCC(=O)NCc1ccccn1 | 1.61% |
| O=c1[nH]c(=S)n(-c2cccc(Cl)c2)c(O)c1C=NCCN1CCNCC1 | 3.59% |
| Cc1nn(CC(=O)O)c(C)c1[N+](=O)[O-] | 9.13% |
| CCNC(=O)COc1ccc(/C=C2\COc3ccccc3C2=O)cc1OC | 5.98% |
| Oc1cccc(Nc2ncnc3ccccc23)c1 | 0.105% |
| COc1ccc(OCC(=O)Nc2cccc3ncccc23)cc1 | 4.01% |
| N#CC1=C2Sc3ccccc3N2CCCC1=O | 6.5% |
| CCOC(=O)Nc1ccc(OCc2nnc3c4ccccc4c(C)nn23)cc1 | 7.57% |
| COc1ccccc1CNC(=O)CCN=C1NS(=O)(=O)c2ccccc21 | 4.51% |
| CCOC(=O)CC1CCCCN1C(=O)c1ccc2oc(CCc3ccccc3)nc2c1 (stereo not drawn) | 16.9% |
| CC(C)(C)OC(=O)N1Cc2ccccc2C[C@H]1C(=O)NCC(=O)NC1CCCCC1 | 9.19% |
| Cc1ccc(NC(=O)c2cc(N3C(=O)C=CC3=O)ccc2Cl)cc1C | 13.8% |
| CCCn1c(=O)[nH]c(=O)c2c1nc(-c1ccc3c(c1)OCCO3)n2CCN1CCOCC1 | 10.2% |
| CC(Nc1nc(-c2cccc(Br)c2)cs1)c1nc2cc(Cl)c(N3CCCCC3)cc2n1CCOCCO (stereo not drawn) | -1.32% |
| COc1ccc(NC2CCCN(C(=O)CCN3CCCC3=O)C2)cc1 (stereo not drawn) | 14% |
| COc1cc(OC)cc(C(=O)NCc2ccc(-n3cccc3)cc2)c1 | -5.32% |
| O=C(COC(=O)/C=C/c1ccc(Cl)c(Cl)c1)NC1CCS(=O)(=O)C1 (stereo not drawn) | 3.41% |
| O=S(=O)(NC1CCCCC1)c1ccc(Br)s1 | -2.31% |
| COc1ccc(NC(C)C(=O)Nc2cc(C(F)(F)F)ccc2N2CCOCC2)c(OC)c1 (stereo not drawn) | -1.3% |
| O=C(C1CCC1)N1CCc2cc(S(=O)(=O)Nc3ccc4c(c3)OCO4)ccc21 | 2.39% |

| SMILES | hERG current change (%, negative = inhibition) at 1uM |
| --- | --- |
| COC(=O)c1cccc(-n2c(C)cc(C=O)c2C)c1C | 8.12% |
| Cc1ccccc1CC(=O)OCC(=O)Nc1ccc(C)c(S(=O)(=O)N2CCCCC2)c1 | -1.62% |
| Cc1cccc(NC(=O)CNC(=O)CNC(=O)Cc2ccccc2)c1 | 5.91% |
| Cc1cnc(NC(=O)/C=C/c2ccc(Br)o2)s1 | 2.1% |
| COc1cc2c(cc1OC)C(C(=O)O)C(c1ccc(C)o1)N(C)C2=O (stereo not drawn) | 5.67% |
| Cc1ccc(/C(C#N)=C\c2cn(C)c3ccccc23)cc1 | -3.21% |
| O=C(CCc1nnc(CCC2CCCCC2)o1)NCCc1cccnc1 | 8.4% |
| CCOC(=O)c1cnn(-c2nc(SC)nc3sc4c(c23)CCC4)c1N | 5.94% |
| COc1ccc(OC)c(NS(=O)(=O)c2ccc(Cl)nc2)c1 | 8.04% |
| COc1ccc(-c2oc3ccc(N4CCOCC4)cc3c2C#CC2(O)CCCCC2)cc1 | 11.8% |
| Cc1ccccc1Cn1cc(NS(=O)(=O)c2cn(C)nc2C)cn1 | 14.5% |
| CCCC(=O)Nc1nc2c(c(=O)[nH]1)CCCC2 | 14.2% |
| COc1ccnc(Oc2ccc(F)cc2)c1C(=O)N/C=N/OCc1ccc(F)cc1Cl | 12.6% |
| O=[N+]([O-])c1ccc(N2CCN(C(=S)Nc3ccccc3)CC2)cc1 | 5.2% |
| CCc1ccc(NC(=O)C(C)Nc2ccc(S(=O)(=O)NC(C)=O)cc2)cc1 (stereo not drawn) | 6.91% |
| N#CC(C#N)=C(N)Nc1cccc(Cl)c1 | 11.3% |
| N#C/C(=C(/O)CCl)c1nc2ccccc2[nH]1 | 1.42% |
| Cc1ccc(NC(=O)c2cc(=O)c3ccccc3o2)cc1S(=O)(=O)N1CCOCC1 | 9.18% |
| O=C(OCC(=O)N1c2ccccc2Sc2ccccc21)c1ccc[n+]([O-])c1 | 4.24% |
| COc1ccc(NS(=O)(=O)c2ccc(NC(=O)c3ccc(N(C)S(C)(=O)=O)cc3)cc2)c(OC)c1 | 14% |
| CS(=O)(=O)N(CC(=O)NCCSCc1c(F)cccc1Cl)c1ccc2c(c1)OCO2 | 7.52% |
| O=S(=O)(NCC(c1cccnc1)N1CCN(c2ccc(F)cc2)CC1)c1cc(F)ccc1F (stereo not drawn) | -11.8% |

| SMILES | hERG current change (%, negative = inhibition) at 1uM |
| --- | --- |
| c1c2c(cc3sc(N4CCCCC4)nc13)OCO2 | 15.9% |
| O=[N+]([O-])c1ccc(N2CCN(S(=O)(=O)c3ccccc3)CC2)cc1 | -13.5% |
| Cc1cc(N=Cc2c(O)n(-c3cccc(C(F)(F)F)c3)c(=O)c3ccccc23)no1 | 8.56% |
| Cc1cc(=O)n2nc(N3CCCC(C(=O)NC4CCCCC4C)C3)sc2n1 (stereo not drawn) | 17.9% |
| O=C(Oc1ccc2c(c1)O/C(=C\c1ccncc1)C2=O)c1ccccc1 | 6.52% |
| Cc1nn(CCCC(=O)NCCc2ccc(Cl)cc2)c(=O)c2nn(-c3ccccc3)c(C)c12 | 15.9% |
| C=CCC(=O)N1CCCC(CO)(Cc2ccc(F)cc2F)C1 (stereo not drawn) | 7.29% |
| CS/C(=N\NC(N)=O)c1ccccc1 | -3.95% |
| Cc1ccc2c(=O)cc(C(F)F)oc2c1 | -1.85% |
| O=C1NC(CCc2ccccc2)C(=O)N1CCOc1ccccc1 (stereo not drawn) | 8.3% |
| Cl.Fc1cccc(Cl)c1CNCCCSc1ncccn1 | 11% |
| Oc1ccc(Cl)cc1CNc1cccc2cccnc12 | 20.8% |
| COc1ccccc1CCC(=O)OCC(=O)Nc1ccc2[nH]c(=O)[nH]c2c1 | 10.5% |
| CC(=O)OC1N=C(c2ccccc2)c2cc(C)ccc2NC1=O (stereo not drawn) | -2.45% |
| O=C(COc1ccccc1F)Nc1ccc2c(c1)OCCO2 | 16.1% |
| CC(C)[C@H](N)c1nnc(SCC(=O)c2ccc(Cl)cc2)o1.Cl | 7.94% |
| O=C(O)Cn1cc(/C=C2\C(=O)NC(=O)N(c3ccc(Br)cc3)C2=O)c2ccccc21 | 15.5% |
| O=C(c1ccccc1)c1ccc(C(=O)N2CCN(c3ccc(F)cc3)CC2)o1 | -49.4% |
| COc1ccc(-c2cc(C(=O)Nc3ccccc3O)c3ccccc3n2)cc1OC | 10.3% |
| O=C(NCC1CCCO1)c1ccc(CS(=O)(=O)c2c(Cl)cccc2Cl)o1 (stereo not drawn) | 4.53% |
| C/C=C(/C)C(=O)O[C@@H]1[C@H](OC(=O)C=C(C)C)c2c(ccc3ccc(=O)oc23)OC1(C)C | 11.2% |
